Experimental data taken from patent publication US5654451A, “Amino acids and peptides having modified C-terminals and modified N-terminals” (Magainin Pharmaceuticals Inc., priority 1995, dated 1997).
Converted amounts (≈) assume the structure as drawn. Part of at least one peptide drawing is inferred or uncertain, most often the ends.

Tests used:
Experiment in all cases: Antimicrobial assay (MIC, microtiter broth dilution)
Format in all cases: cell-based
C. albicans = settings: for MIC C. albicans: Table I; for MIC C. albicans 14053: strain 14053
Protocol: (§1) The procedure for the antimicrobial assay is based upon the guidelines of the National Committee for Clinical Laboratory Standards, Document M7-T2, Volume 8, No. 8, 1988.
(§2) 1-5×10^5 CFUs/ml of either S. aureus ATCC 25923, E. coli ATCC 25922, P. aeruginosa ATCC 27853, or C. albicans were added to the wells in full strength Mueller Hinton broth (BBL 11443) from a mid-log culture. The inoculum is standardized spectrophotometrically at 600 nm and is verified by colony counts. The plates are incubated for 16-20 hours at 37° C., and the minimal inhibitory concentrations (MIC) for the compounds are determined. Minimal inhibitory concentration is defined as the lowest concentration of amino acid or peptide which produces a clear well in the microtiter plate.

E. coli = settings: for MIC E. coli: Table I, E. coli ATCC 25922; for MIC E. coli 25922: strain 25922 (Tables II-V)
Protocol: as §1, §2

P. aeruginosa = settings: for MIC P aeruginosa: Table I, P. aeruginosa ATCC 27853; for MIC P. aeruginosa 27853: strain 27853 (Tables II-V)
Protocol: as §1, §2

S. aureus = settings: for MIC S. aureus: Table I, S. aureus ATCC 25923; for MIC S. aureus 29213: strain 29213 (Tables II-V)
Protocol: as §1, §2

E. faecium = settings: strain 26143
E. faecalis = settings: for MIC E. faecalis 19052: strain 19052
C. difficile = system: C. difficile
B. fragilis = settings: strain 25285
L. fermentum = settings: strain 23271
P. gingivalis = settings: for MIC P. gingivalis 9-14K-1: strain 9-14K-1; for MIC P. gingivalis 381: strain 381; for MIC P. gingivalis A7A1-28: strain A7A1-28; for MIC P. gingivalis FAY-19M-1: strain FAY-19M-1; for MIC P. gingivalis W50: strain W50
C. tropicalis = settings: for MIC C. tropicalis 13803: strain 13803; for MIC C. tropicalis 28707: strain 28707
C. parapsilosis = settings: for MIC C. parapsilosis 10232: strain 10232; for MIC C. parapsilosis 22109: strain 22109
C. kefyr = settings: strain 28838
T. mentagrophytes = settings: strain 18748
T. rubrum = settings: strain 36262
M. canis = settings: strain 11621
E. floccosum = settings: strain 52062
S. epidermidis = system: S. epidermidis
P. mirabilis = system: P. mirabilis
S. marcescens = system: S. marcescens
P. intermedia = system: P. intermedia
A. actinomycetemcomitans = system: A. actinomycetemcomitans
S. mutans = system: S. mutans
S. sangius = system: S. sangius
A. viscosus = settings: strain 15987

N=C(N)NCCC[C@H](NC(=N)N)C(=O)N[C@@H](Cc1ccccc1)C(=O)NCCCCCCCCCCCCNC(=O)[C@H](Cc1ccccc1)NC(=O)[C@H](CCCNC(=N)N)NC(=N)N [Compound 10, 1,12-[di-N-α-amidino-arginyl-phenylalanyl]diaminododecane]
MIC C. albicans (C. albicans): 16 µg/mL (≈ 18 µM)
MIC C. albicans 14053 (C. albicans): 16,32 μg/ml
MIC E. coli (E. coli): 2 µg/mL (≈ 2.24 µM)
MIC E. coli 25922 (E. coli): 2,4 μg/ml
MIC P aeruginosa (P. aeruginosa): 4 µg/mL (≈ 4.49 µM)
MIC P. aeruginosa 1133 (P. aeruginosa; strain 1133): 16 µg/mL (≈ 18 µM)
MIC P. aeruginosa 27853 (P. aeruginosa): 4,8 μg/ml
MIC P. aeruginosa El Salvador (P. aeruginosa; strain El Salvador): 64 µg/mL (≈ 71.8 µM)
MIC S. aureus (S. aureus): 1 µg/mL (≈ 1.12 µM)
MIC S. aureus 1093 (S. aureus; strain 1093): 2,4 μg/ml
MIC S. aureus 1096 (S. aureus; strain 1096): 2 µg/mL (≈ 2.24 µM)
MIC S. aureus 6538 (S. aureus; strain 6538): 1,2 μg/ml
MIC S. aureus 10164 (S. aureus; strain 10164): 1,2 μg/ml
MIC S. aureus 10175 (S. aureus; strain 10175): 1,2 μg/ml
MIC S. aureus 10185 (S. aureus; strain 10185): 2 µg/mL (≈ 2.24 µM)
MIC S. aureus 19564 (S. aureus; strain 19564): 2 µg/mL (≈ 2.24 µM)
MIC S. aureus 20776 (S. aureus; strain 20776): 2 µg/mL (≈ 2.24 µM)
MIC S. aureus 20846 (S. aureus; strain 20846): 2 µg/mL (≈ 2.24 µM)
MIC S. aureus 20979 (S. aureus; strain 20979): 2 µg/mL (≈ 2.24 µM)
MIC S. aureus 21945 (S. aureus; strain 21945): 2 µg/mL (≈ 2.24 µM)
MIC S. aureus 28447 (S. aureus; strain 28447): 2 µg/mL (≈ 2.24 µM)
MIC S. aureus 29213 (S. aureus): 1 µg/mL (≈ 1.12 µM)
MIC S. aureus KMF (S. aureus; strain KMF): 2 µg/mL (≈ 2.24 µM)
MIC S. aureus MCP-101 (S. aureus; strain MCP-101): 2 µg/mL (≈ 2.24 µM)
MIC E. faecium 26143 (E. faecium): 2/4
MIC E. faecalis 19052 (E. faecalis): 16 µg/mL (≈ 18 µM)
MIC E. faecalis 19290 (E. faecalis; strain 19290): 16 µg/mL (≈ 18 µM)
MIC E. faecalis 23296 (E. faecalis; strain 23296): 4 µg/mL (≈ 4.49 µM)
MIC E. faecalis 29212 (E. faecalis; strain 29212): 4 µg/mL (≈ 4.49 µM)
MIC C. difficile P324 (C. difficile; strain P324): 1,2 μg/ml
MIC C. difficile TTU614 (C. difficile; strain TTU614): 8 µg/mL (≈ 8.98 µM)
MIC B. fragilis 25285 (B. fragilis): 4,8 μg/ml
MIC L. fermentum 23271 (L. fermentum): 1,2 μg/ml
MIC P. gingivalis 9-14K-1 (P. gingivalis): 8 µg/mL (≈ 8.98 µM)
MIC P. gingivalis 381 (P. gingivalis): 8 µg/mL (≈ 8.98 µM)
MIC P. gingivalis A7A1-28 (P. gingivalis): 8 µg/mL (≈ 8.98 µM)
MIC P. gingivalis FAY-19M-1 (P. gingivalis): 16 µg/mL (≈ 18 µM)
MIC P. gingivalis W50 (P. gingivalis): 8 µg/mL (≈ 8.98 µM)
MIC C. tropicalis 13803 (C. tropicalis): 2 µg/mL (≈ 2.24 µM)
MIC C. tropicalis 28707 (C. tropicalis): 1,2 μg/ml
MIC C. parapsilosis 10232 (C. parapsilosis): 64 µg/mL (≈ 71.8 µM)
MIC C. parapsilosis 22109 (C. parapsilosis): 16 µg/mL (≈ 18 µM)
MIC C. kefyr 28838 (C. kefyr): 2 µg/mL (≈ 2.24 µM)
MIC T. mentagrophytes 18748 (T. mentagrophytes): 8 µg/mL (≈ 8.98 µM)
MIC T. rubrum 36262 (T. rubrum): 8 µg/mL (≈ 8.98 µM)
MIC M. canis 11621 (M. canis): 16 µg/mL (≈ 18 µM)
MIC E. floccosum 52062 (E. floccosum): 16 µg/mL (≈ 18 µM)
MIC S. epidermidis 1050 (S. epidermidis; strain 1050): 2 µg/mL (≈ 2.24 µM)
MIC S. epidermidis 1090 (S. epidermidis; strain 1090): 2 µg/mL (≈ 2.24 µM)
MIC S. epidermidis 12228 (S. epidermidis; strain 12228): 2 µg/mL (≈ 2.24 µM)
MIC P. mirabilis 23147 (P. mirabilis; strain 23147): 256 µg/mL (≈ 287 µM)
MIC P. mirabilis 24231 (P. mirabilis; strain 24231): > 256 µg/mL
MIC S. marcescens 18963 (S. marcescens; strain 18963): > 256 µg/mL
MIC S. marcescens 23420 (S. marcescens; strain 23420): > 256 µg/mL
MIC P. intermedia 68-9K-3 (P. intermedia; strain 68-9K-3): 1 µg/mL (≈ 1.12 µM)
MIC P. intermedia 9536 (P. intermedia; strain 9536): 2 µg/mL (≈ 2.24 µM)
MIC P. intermedia 25611 (P. intermedia; strain 25611): 2 µg/mL (≈ 2.24 µM)
MIC P. intermedia 49046 (P. intermedia; strain 49046): 1 µg/mL (≈ 1.12 µM)
MIC A. actinomycetemcomitans 92-1185 (A. actinomycetemcomitans; strain 92-1185): 8 µg/mL (≈ 8.98 µM)
MIC A. actinomycetemcomitans 92-1218 (A. actinomycetemcomitans; strain 92-1218): 0.5 µg/mL (≈ 0.561 µM)
MIC A. actinomycetemcomitans 29522 (A. actinomycetemcomitans; strain 29522): 4 µg/mL (≈ 4.49 µM)
MIC A. actinomycetemcomitans 43718 (A. actinomycetemcomitans; strain 43718): 2 µg/mL (≈ 2.24 µM)
MIC S. mutans 25175 (S. mutans; strain 25175): 1 µg/mL (≈ 1.12 µM)
MIC S. mutans 33535 (S. mutans; strain 33535): 1 µg/mL (≈ 1.12 µM)
MIC S. mutans 38402 (S. mutans; strain 38402): 1 µg/mL (≈ 1.12 µM)
MIC S. sangius 29667 (S. sangius; strain 29667): 8 µg/mL (≈ 8.98 µM)
MIC S. sangius 49295 (S. sangius; strain 49295): 64 µg/mL (≈ 71.8 µM)
MIC A. viscosus 15987 (A. viscosus): 2 µg/mL (≈ 2.24 µM)

N=C(N)NCCC[C@@H](NC(=O)CCN)C(=O)N[C@H](Cc1ccccc1)C(=O)NCCCCCCCCCCCCNC(=O)[C@@H](Cc1ccccc1)NC(=O)[C@@H](CCCNC(=N)N)NC(=O)CCN [Compound 12-D]
MIC C. albicans (C. albicans): 64 µg/mL (≈ 67.4 µM)
MIC C. albicans 14053 (C. albicans): 64 µg/mL (≈ 67.4 µM)
MIC E. coli (E. coli): 16,32 μg/ml
MIC E. coli 25922 (E. coli): 16,32 μg/ml
MIC P aeruginosa (P. aeruginosa): 64 µg/mL (≈ 67.4 µM)
MIC P. aeruginosa 27853 (P. aeruginosa): 64 µg/mL (≈ 67.4 µM)
MIC S. aureus (S. aureus): 4 µg/mL (≈ 4.21 µM)
MIC S. aureus 29213 (S. aureus): 4 µg/mL (≈ 4.21 µM)
MIC E. faecium 26143 (E. faecium): 16 µg/mL (≈ 16.9 µM)
MIC E. faecalis 19052 (E. faecalis): 64 µg/mL (≈ 67.4 µM)
MIC P. gingivalis 9-14K-1 (P. gingivalis): 32 µg/mL (≈ 33.7 µM)
MIC P. gingivalis 381 (P. gingivalis): 16,32 μg/ml
MIC P. gingivalis A7A1-28 (P. gingivalis): 64 µg/mL (≈ 67.4 µM)
MIC P. gingivalis FAY-19M-1 (P. gingivalis): 32 µg/mL (≈ 33.7 µM)
MIC P. gingivalis W50 (P. gingivalis): 64 µg/mL (≈ 67.4 µM)
MIC C. tropicalis 13803 (C. tropicalis): 8 µg/mL (≈ 8.43 µM)
MIC C. tropicalis 28707 (C. tropicalis): 2 µg/mL (≈ 2.11 µM)
MIC C. parapsilosis 10232 (C. parapsilosis): 256 µg/mL (≈ 270 µM)
MIC C. parapsilosis 22109 (C. parapsilosis): 16 µg/mL (≈ 16.9 µM)
MIC C. kefyr 28838 (C. kefyr): 8 µg/mL (≈ 8.43 µM)
MIC T. mentagrophytes 18748 (T. mentagrophytes): 4 µg/mL (≈ 4.21 µM)
MIC T. rubrum 36262 (T. rubrum): 16 µg/mL (≈ 16.9 µM)
MIC M. canis 11621 (M. canis): 8 µg/mL (≈ 8.43 µM)
MIC E. floccosum 52062 (E. floccosum): 8 µg/mL (≈ 8.43 µM)
